# The campaign covered roughly 45,000 compounds. About 200 (0.44%) were called active. Roughly 7% stayed inconclusive and do not appear here. The call rests on the fitted dose curve; in most records, active means well fitted activation curve with a large enough effect; inconclusive means small, poorly fitted or top-dose-only effect; inactive means no such curve, though single readings can be large or run the other way. Some of the results follow.
# Test: qHTS of TDP-43 Inhibitors: NCGC Sytravon Library Screen; further: nearly all actives have a fitted effect of over 55% in size; on growth rescue (activation): 0% is about no effect
# Conditions: yeast TDP-43 toxicity rescue, BacTiter-Glo growth, 24 h; series mostly up to 46.1 µM; growth rescue (activation): at the top concentration
# How it was run: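 TDP-43-expressing yeast, pregrown in raffinose, seeded at OD600 0.02 in galactose medium with compound for 24 hr at 30 deg C. Growth read by BacTiter-Glo luminescence, so rescue of toxicity appears as activation.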
# Potency means the concentration at half of the fitted maximal effect.
Compound,growth rescue (activation),Potency
CCOC(=O)CNS(=O)(=O)c1cc(-c2n[nH]c(=O)c3ccccc23)ccc1C,inactive: 26.8%,
CC(=O)N(c1ccc2oc(=O)sc2c1)S(=O)(=O)c1ccc(C(=O)O)cc1,inactive: 8.78%,
COc1ccc(/C=C(\C#N)C(=O)Nc2cc(S(=O)(=O)N3CCOCC3)ccc2N2CCCC2)cc1,inactive: 17.9%,
COc1cccc(CC(NC(C)=O)C(=O)NC2CCN(C(=O)C3CC3)CC2)c1OC (stereo unspecified),inactive: 11.4%,
Cn1nc(-c2ccccc2)c(C(=O)NC(C(=O)O)c2ccccc2)c1Cl (stereo unspecified),inactive: -2.64%,
Cc1ccc([N+](=O)[O-])cc1NC(=O)C(Sc1ccccc1)c1ccccc1 (stereo unspecified),inactive: 9.6%,
CC(C)[C@H](NC(N)=O)C(=O)Nc1cccc(S(=O)(=O)N2CCOCC2)c1,inactive: 9.73%,
CC1CCCC(C)N1/N=C/c1ccc(C#N)cc1 (stereo unspecified),inactive: 6.73%,
COc1ccc2cc(-c3[nH]ncc3CN3C[C@@H]4CCC[C@H]3C4)ccc2c1,inactive: 3.26%,
O=C(/C=C/c1ccccc1)CC(=O)c1ccccc1O,inactive: 11.9%,
C=CCC(=O)N1CCCC(CNC(=O)c2ccc(-c3ccccc3)cc2)C1 (stereo unspecified),inactive: 15.3%,
CC1=CC(C)(C)N(C(=O)CCl)c2cc(C)ccc21,inactive: 2.68%,
Cc1ccc(NC(=O)CCC(=O)c2cccs2)cc1F,inactive: 6.85%,
COc1ccc([N+](=O)[O-])cc1NC(=O)CCN1CCOCC1,inactive: 2.21%,
CCN1C(=O)C2(/C(=C(\O)c3ccc4c(c3)OCCO4)C(=O)C(=O)N2CCCOC)c2ccccc21 (stereo unspecified),inactive: -11.1%,
O=C(O)CSc1nnc(-c2ccc(Cl)cc2Cl)n1-c1ccc(Cl)cc1,inactive: 18.6%,
COc1ccc(OCC(=O)Nc2ccc(S(=O)(=O)N3CCCCC3)cc2)cc1,inactive: 9.07%,
CCn1c(=O)c([N+](=O)[O-])c(NC2CCS(=O)(=O)C2)c2ccccc21 (stereo unspecified),inactive: -9.37%,
COc1ccc(Cl)cc1NC(=O)COC(=O)Cc1cc(OC)c(OC)c(OC)c1,inactive: -5.4%,
CCSc1ncc(Cl)c(C(=O)Nc2ccc(S(N)(=O)=O)cc2)n1,inactive: 5.43%,
COc1ccccc1CNC(=O)COC(=O)Cc1ccc(Br)cc1,inactive: -12.7%,
CC(c1ccccc1)n1c(SCC(=O)N2CC(=O)Nc3ccccc32)nc2ccccc2c1=O (stereo unspecified),inactive: 17.9%,

Compound,growth rescue (activation),Potency
COc1ccc(-c2[nH]ncc2CN(C)C(C)c2ccon2)cc1F (stereo unspecified),inactive: 6.74%,
CN(C(=O)c1ccc2c(c1)SC1=NS(=O)(=O)CCN12)C(c1ccccc1)c1ccccc1,inactive: 21.4%,
COc1cc2c(cc1OC)CN(CC(=O)Nc1ccccc1C(=O)NCc1ccccc1)CC2,inactive: -1.33%,
O=S(=O)(NCCc1nnc2ccc(SCc3cccnc3)nn12)c1ccccc1,inactive: -1.81%,
Nc1ccccc1-c1nnc2n1CCCCC2,inactive: -1.44%,
O=C(COC(=O)c1ccc(F)cc1Cl)NC1CCCCCCC1,inactive: -11.7%,
O=S(=O)([O-])CCC[N+]1(CC#Cc2ccccc2)CCCCC1,inactive: -3.46%,
O=C(NC(=S)NN1CCCCC1c1cccnc1)c1ccc(Cl)cc1Cl (stereo unspecified),inactive: 14.7%,
CCN(CC)S(=O)(=O)c1ccc(C(C)NC(=O)Cc2c[nH]c3ccccc23)cc1 (stereo unspecified),inactive: 23.9%,
Cc1nc(-c2ccc3c(c2)OCCO3)cs1,inactive: 19.7%,
O=C1CSC(c2ccc([N+](=O)[O-])cc2)N1C1CCCCC1 (stereo unspecified),inactive: 9.47%,
COc1ccc(C(=O)/C=C/Nc2ccc(S(=O)(=O)Nc3onc(C)c3C)cc2)cc1,inactive: 5.86%,
COC(=O)C(Cc1c[nH]c2ccccc12)NC(=O)c1ccc2nc[nH]c2c1 (stereo unspecified),inactive: 30.3%,
COc1cc(C(c2oc(CO)cc(=O)c2O)c2oc(CO)cc(=O)c2O)cc(OC)c1OC,inactive: 2.13%,
CCc1nc2c(OCC3CCCCC3)cccn2c1N(C)C(=O)c1ccc(C)cc1,inactive: 0.0066%,
C/C(CCc1ccco1)=N\NC(=O)CNc1c(Br)cc(Br)cc1Br,inactive: 9.86%,
CCCCC(=O)Nc1ccc(NC(=S)NC(=O)c2ccco2)cc1OC,inactive: 21.8%,
Cc1nn(C(C)C(=O)O)c(=O)c2ccccc12 (stereo unspecified),inactive: -0.853%,
CCc1cc(C(=O)N/N=C/c2ccc(OC)cc2)c2ccccc2n1,inactive: -6.47%,
CCN(C(=O)COC(=O)c1cc(C)n(-c2ccc(F)cc2)c1C)C1CCS(=O)(=O)C1 (stereo unspecified),inactive: 2.9%,
COc1ccc(O)c(/C=N/NC(=O)c2ccc(N3CCCC3=O)cc2)c1,inactive: -16.7%,
O=C(O)CN(C1CCCCC1)S(=O)(=O)c1ccc(F)cc1,inactive: -7.01%,

Compound,growth rescue (activation),Potency
CC1CCC/C(=C\Nc2ccc(C(=O)O)c(O)c2)C1=O (stereo unspecified),inactive: 15.9%,
C=CCOc1ccc(/C=N/NC(=O)CN2CCOCC2)cc1OCC,inactive: 0.405%,
Cc1cc(C(F)(F)F)nc(SCC(=O)Nc2c(C)n(C)n(-c3ccccc3)c2=O)n1,inactive: 6.48%,
CCN(CC)CCN(Cc1cc2cc(C)ccc2[nH]c1=O)C(=S)Nc1ccccc1,inactive: 2.94%,
CC1=CN2C(=N)/C(=C/c3ccc(Sc4ccc(C)cc4)o3)C(=O)N=C2S1,inactive: 5.06%,
COc1cc(C(=O)O)cc(NC(=O)c2ccco2)c1OC,inactive: 12.8%,
CCc1ccc(OCCCC(=O)Nc2cccc(C(=O)O)c2)cc1,inactive: -4.47%,
O=C(NCCCO)c1cc([N+](=O)[O-])cc2c1C=Cc1ccccc1O2,inactive: 7.05%,
CCN(CC)S(=O)(=O)c1ccc(N=Nc2c(N)[nH]c(=O)[nH]c2=O)cc1,inactive: 10.4%,
CCOC(=O)c1c(NC(=O)c2cnn3c2NC(c2cccc(OC)c2)CC3C(F)(F)F)sc2c1CCCC2 (stereo unspecified),inactive: 10.6%,
CCCCN(C)C1CCN(C(=S)Nc2cccc(SC)c2)CC1,inactive: 3.64%,
O=C(NC(Cc1ccccc1)C(=O)O)/C(=C/c1ccc([N+](=O)[O-])cc1)NC(=O)c1ccco1 (stereo unspecified),inactive: 17.5%,
Cc1ccc(S(=O)(=O)n2nc(OC(=O)c3ccccc3C)cc2N)cc1,inactive: 22.7%,
Cc1n[nH]c(=O)nc1N/N=C/c1cccs1,inactive: -0.071%,
O=C(CSc1nc2ncc(Br)cc2[nH]1)c1cccc([N+](=O)[O-])c1,inactive: 16.6%,
COc1cc2c(cc1OC)C(COc1ccccc1OC)N(C(=O)C(C)(C)C)CC2 (stereo unspecified),inactive: -10.6%,
Nc1nc2ccccc2n1CCOc1ccccc1Cl,inactive: 8.55%,
Cc1ccc(C(=O)CNc2cccc(Cl)c2)cc1,inactive: 10%,
NC(=O)c1ccc(N2CCCCCC2)c([N+](=O)[O-])c1,inactive: 20.7%,
COc1ccc(CCNc2ncnc3[nH]ncc23)cc1OC,inactive: 22.4%,
O=C1CC(/C=C/c2cccnc2)=Nc2ccccc2N1,inactive: 3.11%,
Cc1nonc1OCCN1CCN(c2ccc([N+](=O)[O-])cc2)CC1,inactive: 0.309%,

Compound,growth rescue (activation),Potency
NC(=O)c1ccc(NC(=O)COC(=O)c2ccccc2Nc2ccccc2)cc1,inactive: 4.8%,
COc1cc(S(=O)(=O)N2CCCC2)c(C)cc1C,inactive: 6.44%,
O=c1c2cc(F)ccc2[nH]c(=S)n1Cc1ccc(F)cc1,inactive: 9.81%,
CCn1c(O)c(/C=C/C=C/C=Nc2ccccc2)sc1=S,inactive: -20.9%,
OC(c1ccc(F)cc1)c1nc(-c2csc3ccccc23)cs1 (stereo unspecified),inactive: -34.8%,
CC(=O)Nc1ccc(S(=O)(=O)NC2(C(F)(F)F)C(=O)Nc3c2c(=O)[nH]c(=O)n3Cc2ccco2)cc1 (stereo unspecified),inactive: -0.286%,
CCOc1ccc(-n2c(=O)c3sccc3n(CC(=O)NC3CCCCC3)c2=O)cc1,inactive: -13.6%,
O=C1CN(C(=O)COC(=O)c2cc(S(=O)(=O)N3CCOCC3)ccc2Cl)c2ccccc2N1,inactive: -16.4%,
Fc1ccccc1N1CCN(c2ncnc3nc[nH]c23)CC1,inactive: 1.82%,
Cc1nc(Nc2ccc(C(=O)O)cc2)sc1-c1ccccc1,inactive: -1.26%,
O=C(Cc1c(F)cccc1Cl)NNC(=O)c1ccco1,inactive: -13.7%,
CCN(CC(=O)NC(C)(C)C)C(=O)CN1c2cccc3cccc(c23)S1(=O)=O,inactive: -11.1%,
O=C(COC(=O)c1ccc2c(c1)OCO2)NC1CCS(=O)(=O)C1 (stereo unspecified),inactive: 7.3%,
COc1ccc(N2CCN(c3cncc(C)n3)CC2)cc1,inactive: 15.4%,
COc1ccc(C2C3=C(CC(C)(C)CC3=O)Oc3ncn4nc(-c5ccccc5)nc4c32)cc1 (stereo unspecified),inactive: -21.9%,
CC(C)(CSc1nncn1/N=C/c1ccco1)NS(=O)(=O)c1ccc(Cl)cc1,inactive: -6.51%,
Cc1ccc(S(=O)(=O)/N=C(\N)c2ccc(Cl)cc2)cc1,inactive: 18%,
CC(=N\NC(=O)c1ccc([N+](=O)[O-])cc1)/C(=N/O)C(=O)Nc1ccccc1,inactive: 14.9%,
CC(=O)Nc1ccc(Nc2ccc(N3C(=O)CCCC3=O)cc2[N+](=O)[O-])cc1,inactive: 12.4%,
CC(=O)Nc1nnc(SCc2ccc(C(=O)Nc3ccccc3F)cc2)s1,inactive: 7.07%,
COc1cccc(NC(=O)C2C3C=CC(O3)C2C(=O)O)c1 (stereo unspecified),inactive: -2.09%,
COc1cc(CCC(=O)OCC(=O)Nc2ccccc2F)cc(OC)c1OC,inactive: 6.53%,

Compound,growth rescue (activation),Potency
COc1ccc(C(=O)NCCSc2ccccc2)cc1,inactive: 3.63%,
O=C(NC(=S)NCC1CCCO1)c1ccccc1 (stereo unspecified),inactive: -14.1%,
COc1ccc(/C(O)=C/c2nc3ccccc3n(-c3ccccc3)c2=O)cc1,inactive: -1.49%,
O=C(O)C(Cc1c[nH]c2ccccc12)N1Cc2ccccc2C1=O (stereo unspecified),inactive: -8.01%,
COc1cc(/C=C2\SC(=Nc3ccc(Cl)c(C(=O)O)c3)NC2=O)c(Br)c(Br)c1O,inactive: 3.47%,
c1ccc2c(c1)CNC1(CCCCC1)C2,inactive: 14%,
COc1ccc2[nH]c(C(=O)N3CCN(Cc4ccccc4)CC3)cc2c1OC,inactive: 6.76%,
C=CC(=O)NC(NC(=O)C=C)c1ccccc1F,inactive: 22.2%,
CN(Cc1cccc(Cl)c1Cl)c1ccc(S(=O)(=O)N2CCCCC2)cc1[N+](=O)[O-],inactive: -0.618%,
O=[N+]([O-])c1ccc(N2CCN(c3ccc(O)cc3)CC2)c(Cl)c1,,active: 12.6 µM
Cc1cccc(C(=O)N2CCc3cc(-c4nc(NC(=O)CN5CCCC5)sc4C)ccc32)c1,inactive: 12.9%,
Cc1nnc(SCC(=O)NC2CCCCC2)[nH]c1=O,inactive: 11.7%,
O=C(CC1OCC2CCCN2C1=O)Nc1ccc([N+](=O)[O-])cc1 (stereo unspecified),inactive: -45%,
CCc1cccc(NC(=O)Cn2cc(C(=O)c3ccncc3)c(=O)c3cc(C)c(C)cc32)c1,inactive: 11.2%,
CC(=O)c1ccc(C)cc1OC(=O)c1cccc(F)c1,inactive: 23.8%,
CC(NC(=O)CSc1ncccn1)c1ccc(Cl)cc1Cl (stereo unspecified),inactive: 11.5%,
C=CCn1c(SCC(=O)Nc2ncc(Cc3cc(Cl)ccc3Cl)s2)nnc1-c1ccncc1,inactive: -1.32%,
CCOC(=O)c1cc2c(ccn2C)n1CC(=O)N(CC)CC,inactive: -3.81%,

# Reference: PubChem BioAssay AID1347073 (National Center for Advancing Translational Sciences (NCATS), 2019)
